Experimental data: PubChem BioAssay AID360 (National Center for Advancing Translational Sciences (NCATS), 2006)
Where “and” joins values, the source holds several entries; their conditions need not be identical. Equal values may be shown once. Among all 48,000 compounds or so, about 550 (1.1%) were called active. Roughly 4% stayed inconclusive and do not appear here. Cut-off read from the data, not from the text of the source: active = potency below about 15 µM; inconclusive = mostly about 16 µM to 33 µM; inactive = weaker than that. The list shows a part of the results.

These molecules were tested against Lysosomal acid glucosylceramidase (Homo sapiens) (UniProt P04062) (assay: Glucocerebrosidase). Conditions: purified enzyme, resorufin glucoside fluorescence (screen aimed at inhibitors), 20 min.
UniProt P04062, sequence (P04062 whole entry, looked up): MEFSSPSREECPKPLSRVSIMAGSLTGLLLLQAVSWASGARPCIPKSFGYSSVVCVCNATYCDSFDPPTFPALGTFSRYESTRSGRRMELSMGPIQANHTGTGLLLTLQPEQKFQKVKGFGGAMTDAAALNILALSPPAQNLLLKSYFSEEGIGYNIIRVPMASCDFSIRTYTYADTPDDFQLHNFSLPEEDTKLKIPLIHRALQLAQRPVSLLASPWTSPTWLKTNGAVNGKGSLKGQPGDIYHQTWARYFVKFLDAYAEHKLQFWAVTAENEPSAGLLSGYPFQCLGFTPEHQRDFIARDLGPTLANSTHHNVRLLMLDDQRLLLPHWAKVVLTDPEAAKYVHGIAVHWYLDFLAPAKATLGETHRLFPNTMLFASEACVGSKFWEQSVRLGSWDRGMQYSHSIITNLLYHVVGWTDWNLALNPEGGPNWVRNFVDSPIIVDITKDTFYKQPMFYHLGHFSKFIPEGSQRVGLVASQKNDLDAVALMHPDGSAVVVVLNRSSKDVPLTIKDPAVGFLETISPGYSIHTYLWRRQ
Procedure, shortened: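 Wild-type enzyme at 0.2 nM final in 50mM citric acid/KH2PO4, 10mM sodium taurocholate, 0.01% tween-20, pH 5.9, with resorufin beta-D-glucopyranoside at 30 uM final. Compounds titrated, 20 min at RT, red fluorescence read; AC50 from titration.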
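Note: the screen sought inhibitors.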
Potency is the fitted concentration of half-maximal effect.

Potency, inactive:
O=C(Nc1ccc2c(c1)OCO2)C1CCN(c2ccc(S(=O)(=O)N3CCOCC3)cc2)CC1 > 76.9 µM, COc1ccccc1CNC(=O)CCNC(=O)Cn1cnc2ccccc2c1=O > 76.9 µM, CCCCNC(=O)CC(NS(=O)(=O)c1ccc(C)cc1)c1ccco1 (stereo unspecified) > 76.9 µM, Cc1csc(NC(=O)C2CCN(C(=O)CSc3nnc(C)n3Cc3ccccc3)CC2)n1 > 76.9 µM, Cc1ccc(C)c(S(=O)(=O)N2CCN(CC(=O)Nc3cc(C)on3)CC2)c1 > 76.9 µM, C=Cn1c(C(=O)O)cc(CC)c1-c1ccccc1 > 76.9 µM, Cc1cnc(C(=O)Nc2ccccc2-c2ccc(C)o2)cn1, COC(=O)CN(C#N)c1nc(OC)nc(N(C)C)n1 > 76.9 µM, CCC(Oc1ccc(C)c(C)c1)C(=O)O (stereo unspecified) > 76.9 µM, COc1ccc(-c2nc(N3CCOCC3)nc3nn4c(C)c(CCC(=O)O)c(C)nc4c23)cc1 > 76.9 µM, O=C(Cn1c(=O)[nH]c2ccsc2c1=O)N1CCN(c2ccc(F)cc2)CC1 > 76.9 µM, Cc1ccc(F)cc1NC(=O)C1CCN(c2cnccn2)CC1 > 76.9 µM, CC(=O)c1c(C)nc2ccccc2c1N > 76.9 µM, O=C(NCC(=O)N(CC1CCCO1)C(C(=O)NC1CCCC1)c1cccnc1)c1ccco1 (stereo unspecified) > 76.9 µM, Cc1ccc(NC(=O)C2CCN(S(=O)(=O)c3cnc[nH]3)CC2)nc1 > 76.9 µM, O=C(NCCCNC(=O)NC1CCCCC1)NC1CCCCC1 > 76.9 µM, COCCn1c(SCC(=O)Nc2ncc(C)s2)nc2sc3c(c2c1=O)CCC3 > 76.9 µM, CC1CC(C(F)(F)F)n2ncc(C(=O)O)c2N1 (stereo unspecified) > 76.9 µM, CC(=O)NCCc1ccc(S(=O)(=O)Nc2cccnc2)cc1 > 76.9 µM, O=C(NC1CCCCCC1)c1ccc(N2CCCC2=O)cc1 > 76.9 µM, COc1ccc(N=C2SCC(=O)N2c2ccc(OC)cc2)cc1 > 76.9 µM, COc1cccc2c1OC1(C)CC2/C(=C(\C)O)C(=O)N1 (stereo unspecified) > 76.9 µM, COCCn1cnnc1SCC(=O)Nc1ccccc1C(=O)Nc1ccc2c(c1)OCO2 > 76.9 µM, COCCn1c(-c2ccccc2F)n[nH]c1=S > 76.9 µM, COc1ccc(N2CCN(C(=O)c3cccc(N4C(=O)C5CC=CC(C)C5C4=O)c3)CC2)cc1 (stereo unspecified), Cn1c(C(=O)O)c(CC(=O)Nc2ccc3c(c2)OCCO3)c2ccccc21 > 76.9 µM, Cc1nn2c(c1-c1ccccc1)N=C(c1ccco1)CC2c1ccccc1 (stereo unspecified) > 76.9 µM, N#Cc1ccsc1NC(=O)c1cnccn1 > 76.9 µM, O=C(Cn1nc(-c2ccc3c(c2)OCCO3)ccc1=O)Nc1ccc(N2CCOCC2)cc1 > 76.9 µM, COc1ccc(CCNC(=O)CSCc2n[nH]c(=O)[nH]2)cc1OC > 76.9 µM, O=S(=O)(CCCc1ccccc1)c1ncn[nH]1 > 76.9 µM, CC(C)(C)NS(=O)(=O)c1ccc(CCC(=O)N2CCOCC2)cc1 > 76.9 µM, COCCN(CCOC)C(=O)c1cc2c(=O)n3ccccc3nc2s1 > 76.9 µM, Cc1cc2c3c(c1)C1(C(=O)N3C(C)(C)CC2C)C(C#N)=C(N)Oc2cc(O)ccc21 (stereo unspecified), O=C1CN(C(=O)CSc2nncn2-c2ccccc2)c2ccccc2N1 > 76.9 µM, COc1nc(OC/C(N)=N/O)nc(N2CCOCC2)n1 > 76.9 µM, Cc1cc(C(=O)CSc2nnnn2C)c(C)n1CCc1ccc(Cl)cc1 > 76.9 µM, N/C(COc1ccc(C(=O)O)cc1)=N\O > 76.9 µM, CC1CCCC(NC(=O)CSc2nnc(N)s2)C1C (stereo unspecified) > 76.9 µM, CCN(C(=O)CSc1nncs1)c1c(N)n(Cc2ccccc2)c(=O)[nH]c1=O > 76.9 µM, CCOc1ccc(OCC)c(NC(=O)CN2CCN(c3cccc(C)c3)C(C)C2)c1 (stereo unspecified) > 76.9 µM, COc1ccc(CC(=O)OCc2cc3cccc(C)c3[nH]c2=O)cc1 > 76.9 µM, Cc1cc(C)c(C#N)c(SCC(O)CS(=O)(=O)Cc2ccccc2)n1 (stereo unspecified) > 76.9 µM, O=c1[nH]c(SCCOc2ccccc2)nc2ccccc12 > 76.9 µM, O=C(CSc1n[nH]c(=O)n1C1CC1)Nc1cc(Cl)ccc1Oc1ccccc1 > 76.9 µM, O=C(Nc1ccc(CN2CCOCC2)cc1)c1cc2ccccc2oc1=O > 76.9 µM, O=C(CSc1nc(-c2ccco2)cc(C(F)(F)F)n1)N1CCc2ccccc2C1 > 76.9 µM, CN(c1ccccc1C(=O)Nc1cccc(C(F)(F)F)c1)S(C)(=O)=O > 76.9 µM, Cc1sc(NC(=O)CSc2nnc(-c3ccc(F)cc3)o2)c(C#N)c1C > 76.9 µM, O=C(CCN1C(=O)C2C3C=CC(C3)C2C1=O)NCc1cccnc1 (stereo unspecified) > 76.9 µM, COc1ccccc1CNC(=O)CCCn1c(=O)c2ccccc2n(CC(=O)NC2CCCC2)c1=O > 76.9 µM, COc1ccc(C(C)(C)C)cc1NC(=O)c1c(C)noc1C > 76.9 µM, CCn1nnnc1Oc1ccc(Cl)cc1 > 76.9 µM, COc1ccc2cc(CN(CC3COCCO3)S(=O)(=O)c3ccccc3)c(=O)[nH]c2c1 (stereo unspecified) > 76.9 µM, O=C(NCc1cn2ccsc2n1)Nc1cccc(Cl)c1 > 76.9 µM, Cc1cc(C(=O)CN2C(=O)c3ccccc3C2=O)c(C)n1Cc1cccs1 > 76.9 µM, CCCn1c(SCC(=O)NC2CCCCC2)nnc1-c1ccncc1 > 76.9 µM, O=c1cc(CNCCCO)c2ccccc2[nH]1 > 76.9 µM, COc1c(Br)cc(Br)cc1C(=O)O > 76.9 µM, CSc1cccc(NC(=O)CN(C)S(=O)(=O)c2ccc(F)cc2)c1 > 76.9 µM, COc1cc(C2NC(=O)NC(O)(C(F)(F)F)C2C(=O)c2ccc(Cl)cc2)ccc1O (stereo unspecified) > 76.9 µM, O=C(CNC(=O)c1cc2ccccc2o1)NCc1cccs1 > 76.9 µM, CCN1C(=O)/C(=C2/Sc3ccccc3N2CCCS(=O)(=O)O)SC1=S > 76.9 µM, Cc1ccc(NC(=O)CS(=O)CC(=O)Nc2cccc(C)c2C)cc1F (stereo unspecified) > 76.9 µM, O=C(CSc1nnc(CN2CCOCC2)n1-c1ccccc1)N1CCc2ccccc21 > 76.9 µM, COCCn1c(CCC(=O)O)nc2c1c(=O)[nH]c(=O)n2CC(C)C > 76.9 µM, CCOC(=O)C1CCCN(c2nc(C)nc3c2oc2ccccc23)C1 (stereo unspecified) > 76.9 µM, CC(=O)c1ccc(C(C)(C)c2ccc(C(C)=O)s2)s1 > 76.9 µM, O=C(CN(C1CCCCC1)S(=O)(=O)c1ccccc1)NCc1cccnc1 > 76.9 µM, Cn1c(=O)c2c(nc(CN3CCC(C(N)=O)CC3)n2Cc2ccccc2F)n(C)c1=O > 76.9 µM, COc1cccc(S(=O)(=O)Nc2cccnc2)c1 > 76.9 µM, CC(NS(=O)(=O)c1ccccc1)C(c1cccs1)N1CCN(C)CC1 (stereo unspecified), O=C(CCn1c(=O)oc2ccccc21)N1CCN(c2ccccc2F)CC1 > 76.9 µM, O=C(N1CCOCC1)N1CCCN(C(=O)N2CCOCC2)CC1 > 76.9 µM, CCCc1nc2scc(-c3ccccc3)c2c(=O)n1N > 76.9 µM, CCN1CCCC1CNC(=O)c1cc(NC(C)=O)c(N(C)C)cc1OC (stereo unspecified) > 76.9 µM, OCCSc1ncnc2c1oc1ccccc12, CCOC(=O)C1CCN(C(=O)c2cnn3c(C)cc(C)nc23)CC1 > 76.9 µM, COc1cc(C2C3=C(CC(C)(C)CC3=O)Nc3c2c(=O)[nH]c(=O)n3Cc2ccccc2)ccc1O (stereo unspecified) inactive and > 76.9 µM, COC(F)(C(=O)Nc1ccc2c(c1)C(=O)NC2=O)C(F)(F)F (stereo unspecified) > 76.9 µM, Cc1cc(C)c2cc(C#N)c(SCC(=O)NCc3ccco3)nc2c1 > 76.9 µM, Cc1nc(=O)c(-c2ccccc2)c(C)n1CCCO > 76.9 µM, COc1cccc(N2CC(C)Cn3c2nc2c3c(=O)n(CCN3CCOCC3)c(=O)n2C)c1 (stereo unspecified) > 76.9 µM, CC(C)CCn1c(CN2CCN(Cc3ccccc3)CC2)nc2c1c(=O)n(C)c(=O)n2C > 76.9 µM, Cc1ccc2nc(SCC(=O)Nc3cc(C)on3)[nH]c2c1 > 76.9 µM, Cn1c(CCNC(=O)c2ccco2)nc2cc(NC(=O)c3ccco3)ccc21 > 76.9 µM, CCn1c(Cc2c(C)[nH]c3ccccc23)nnc1SCC(N)=O > 76.9 µM, CCOc1ccc(NC(=O)CSc2nc3cccnc3n2CCOC)cc1 > 76.9 µM, CN1CCc2c(sc3c2C(=O)NC(c2ccc4c(c2)OCO4)N3)C1 (stereo unspecified) > 76.9 µM, CN(C)C(=O)c1ccccc1-c1ccccc1 > 76.9 µM

Potency, active:
COc1ccc(N2CCN(Cc3nc(N)nc(Nc4ccccc4OC)n3)CC2)cc1 3.92 µM
